Reference: the supplement of paper PMC12217912
The other results are listed elsewhere or left out. The full chains were built here from the parent and the listed change. Values near 0.05 are background.

B1: TEV protease; numbered along this chain (parent)
chain: MGESLFKGPRDYNPISSSICHLTNESDGHTTSLYGIGFGPFIITNKHLFRRNNGTLVVQSLHGVFKVKDTTTLQQHLVDGRDMIIIRMPKDFPPFPQKLKFREPQREERICLVTTNFQTKSMSSMVSDTSCTFPSGDGIFWKHWIQTKDGQCGSPLVSTRDGFIVGIHSASNFTNTNNYFTSVPKNFMELLTNQEAQQWVSGWRLNADSVLWGGHKVFMVKPEEPFQPVKEATQL

Variants of: B1
Assay: raw area under fraction-flipped curve 0-4 h after induction (AUC4h, not background-subtracted), DNA-recorder readout of cleavage of the substrate (dimensionless); higher = more cleavage of the substrate by the protease variant
Conditions: temperature: 34 °C; time window: 0-4 h after rhamnose induction
Experimental: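 In vivo DNA recorder in E. coli TOP10(DE3) ΔrhaA at 34 °C. Each TEVp single-site mutant (parent TEVp 0) is paired with a single-site variant of the 7-mer TEVs (canonical ENLYFQ|S). The substrate sits between flexible linkers in a Bxb1-sfGFP-TEVs-SsrA fusion, so cleavage stabilises Bxb1 and speeds flipping of a recombination array, read by NGS. The value is the raw area under the fraction-flipped curve over 0-4 h after rhamnose induction (AUC4h), with ≥20 reads per time point. It is not background-subtracted; inactive controls average about 0.047.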
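Note: Bxb1 expression induced with 0.2% (w/v) L-rhamnose at OD600 near 0.5, cultures sampled hourly, flipped fraction per protease–substrate barcode pair counted by paired-end Illumina sequencing.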

Row | Variant | area with substrate ENLYCQS | area with substrate ENLYDQS | area with substrate ENLYEQS | area with substrate ENLYGQS | area with substrate ENLYHQS | area with substrate ENLYIQS | area with substrate ENLYMQS | area with substrate ENLYNQS | area with substrate ENLYQQS | area with substrate ENLYRQS | area with substrate ENLYTQS | area with substrate ENLYVQS | area with substrate ENLYWQS | area with substrate ENLYYQS | area with substrate ENLYKQS | area with substrate ENLYLQS | area with substrate ENLYPQS | area with substrate ENLYSQS
1 | T176K | 0.0806 | 0.067 | 0.058 | 0.0538 | 0.0539 | 0.0779 | 0.0667 | 0.0339 | 0.0597 | 0.0656 | 0.0649 | 0.0491 | 0.0357 | 0.0629 | – | – | – | –
2 | L190Y | 0.0711 | 0.0636 | 0.069 | 0.0613 | 0.0727 | 0.0549 | 0.0806 | 0.0844 | 0.0594 | 0.045 | – | 0.104 | – | 0.0346 | 0.0679 | 0.0756 | 0.0531 | 0.0859
3 | L191A | 0.0731 | 0.0409 | – | 0.0517 | – | – | 0.0681 | 0.0655 | 0.0615 | – | – | 0.0671 | 0.06 | – | 0.0573 | 0.0544 | 0.0709 | –
4 | E195K | 0.0675 | 0.0638 | 0.062 | 0.0628 | 0.0686 | 0.112 | 0.0838 | 0.0622 | 0.0675 | 0.059 | 0.0844 | 0.109 | 0.081 | 0.0668 | 0.0462 | – | 0.0505 | 0.0522
5 | R204F | 0.0818 | 0.07 | 0.0627 | 0.0984 | 0.0817 | 0.151 | 0.113 | 0.0733 | 0.0659 | 0.0511 | 0.089 | 0.134 | 0.0751 | 0.0689 | – | 0.119 | 0.0746 | 0.105
6 | H215C | 0.0165 | 0.0632 | 0.0683 | 0.033 | 0.0642 | 0.0614 | – | 0.0577 | 0.0627 | 0.0633 | 0.0667 | – | 0.055 | 0.0598 | 0.0582 | – | 0.0669 | –
7 | Q227K | 0.12 | 0.0642 | 0.0846 | 0.072 | 0.0631 | 0.119 | 0.0925 | 0.0762 | 0.06 | 0.0502 | – | – | 0.081 | – | 0.0595 | – | 0.0649 | 0.0738
8 | Q227L | 0.066 | 0.0695 | 0.077 | – | – | 0.122 | 0.0899 | 0.0528 | 0.0583 | 0.0633 | 0.0665 | 0.149 | 0.0822 | 0.0704 | 0.0554 | – | 0.102 | 0.0776
9 | K230C | 0.0705 | 0.0647 | 0.0637 | 0.0592 | 0.0362 | – | 0.0743 | 0.0569 | – | – | 0.0745 | 0.15 | 0.0862 | – | 0.0739 | 0.0787 | 0.0528 | 0.0665
10 | E3H | – | 0.065 | 0.0735 | 0.0676 | 0.0698 | 0.111 | 0.0504 | 0.0863 | 0.0733 | – | 0.0731 | – | 0.0853 | 0.0597 | 0.0626 | – | 0.0776 | 0.0823
11 | P9L | – | 0.0555 | 0.0839 | 0.0593 | 0.077 | – | 0.0806 | 0.0656 | 0.0495 | 0.0696 | – | 0.156 | – | – | 0.0565 | – | 0.0857 | 0.0742
12 | R10M | – | 0.0611 | – | – | – | 0.117 | – | 0.0667 | – | – | 0.0885 | 0.107 | 0.0806 | 0.0603 | 0.0682 | – | – | –
13 | D11V | – | 0.0926 | 0.0636 | 0.0678 | 0.0705 | 0.0805 | 0.0589 | 0.0663 | 0.0659 | – | 0.108 | 0.0529 | 0.0565 | 0.0556 | – | 0.0688 | – | 0.0704
14 | I15E | – | 0.0391 | 0.0526 | 0.0536 | 0.0571 | 0.0881 | 0.0654 | 0.0588 | 0.0509 | – | 0.0726 | 0.0796 | 0.0603 | – | 0.0573 | – | 0.0507 | 0.068
15 | I15Q | – | 0.0557 | 0.0902 | 0.0533 | 0.0483 | 0.117 | 0.0763 | 0.0682 | 0.0658 | 0.0549 | 0.071 | 0.116 | 0.0672 | 0.0617 | 0.0585 | 0.0718 | 0.0607 | 0.0689
16 | T23L | – | 0.0759 | 0.0688 | 0.0662 | 0.0762 | 0.131 | 0.0856 | 0.0749 | 0.0666 | 0.0627 | – | 0.0597 | 0.0836 | 0.0534 | 0.0543 | 0.0891 | 0.0842 | 0.0628
17 | E25W | – | 0.0559 | 0.0577 | 0.0496 | 0.072 | 0.138 | 0.0808 | 0.069 | 0.0707 | 0.0641 | 0.0907 | 0.116 | 0.0752 | 0.0654 | 0.0477 | 0.0908 | 0.0676 | 0.0539
18 | S26N | – | 0.0622 | 0.0632 | 0.06 | 0.0721 | – | 0.0708 | 0.0649 | – | 0.0741 | – | 0.0808 | 0.0781 | 0.0578 | 0.0465 | 0.0476 | 0.0456 | –
19 | S26P | – | 0.0538 | 0.0602 | 0.0581 | 0.054 | 0.064 | 0.0532 | 0.0419 | 0.0562 | 0.0827 | 0.0517 | 0.0764 | – | 0.0522 | 0.0575 | 0.0353 | 0.0573 | –
20 | D27W | – | 0.0591 | 0.0642 | 0.0552 | 0.0915 | – | 0.0832 | 0.0487 | 0.0561 | 0.0575 | 0.0571 | 0.0475 | 0.0629 | 0.0595 | 0.0497 | 0.0849 | 0.0741 | 0.0648
21 | G28I | – | 0.0479 | 0.0646 | 0.058 | 0.0358 | 0.102 | 0.0642 | 0.0501 | 0.0589 | 0.0461 | 0.0978 | – | 0.112 | 0.0621 | 0.0425 | 0.0324 | 0.0639 | –
22 | T30Y | – | 0.0733 | 0.0646 | 0.0748 | 0.0533 | 0.125 | 0.0734 | 0.0697 | – | 0.0644 | 0.0868 | 0.11 | 0.0952 | 0.0476 | 0.0517 | 0.074 | 0.0733 | 0.0727
23 | I36T | – | 0.0616 | 0.0699 | 0.0677 | 0.0664 | 0.0961 | 0.0796 | 0.0624 | 0.0581 | – | 0.0789 | 0.088 | 0.0687 | 0.0642 | 0.126 | – | 0.0773 | –
24 | G37T | – | 0.0569 | 0.0582 | 0.0699 | 0.0706 | – | 0.0487 | 0.0673 | – | 0.0566 | 0.0783 | 0.091 | – | – | 0.0431 | – | 0.0654 | 0.0629
